In PubChem BioAssay AID588855 (National Center for Advancing Translational Sciences (NCATS), 2011):
Out of some 410,000 compounds screened, about 5,000 (1.2%) were called active. The shares of active, inactive and inconclusive entries below differ from those in the screen. Calls follow the shape of the dose curve; as a rule, active = well fitted inhibition curve with a large enough effect; inconclusive = small, poorly fitted or top-dose-only effect; inactive = no such curve, though single readings can be large or run the other way. A potency beside an inconclusive call is a rough fit, not a confirmed value.

assay: qHTS for Inhibitors of TGF-b; details: HepG2 CAGA-GFP TGF-b/SMAD3 reporter, GFP fluorescence, 18 h, TGF-beta stimulated, 500 pg/mL final; series mostly up to 46.1 µM; also: nearly all actives have a fitted effect of over 65% in size
How it was run: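 Smad-responsive CAGA-GFP expression was quantified in HEPG2 cells exposed to compounds and 500 pg/mL final TGF-beta for 18 h at 37 degrees C; unstimulated wells defined full inhibition.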
Potency is read from the fitted curve at half-maximal effect; tags tell the direction and shape of the fitted curve.

Structure (SMILES)	Potency
CCOC(=O)C1=CCN(S(=O)(=O)c2ccc(Br)cc2)C1c1cccc(C)c1 (stereo not drawn)	inconclusive: 20 µM [inhibitor, single point]
CCN1C(=O)CSC1=NC12CC3CC(CC(C3)C1)C2	inconclusive: 1.12 µM [inhibitor, full curve]
O=C(O)c1[nH]c2ccc(Cl)cc2c1CCN1C(=O)c2ccccc2C1=O	inconclusive: 17.8 µM [inhibitor, single point]
COC(=O)c1ccccc1NC(=O)c1ccc(-c2cccc(Cl)c2)o1	inconclusive: 1 µM [inhibitor, full curve, poor fit]
CC(C)(C)NC(=O)C(c1c[nH]c2ccccc12)N(C(=O)Cn1nnc(-c2ccc(Cl)cc2)n1)c1ccccc1F (stereo not drawn)	inconclusive: 12.6 µM [inhibitor, partial curve, poor fit]
O=[N+]([O-])c1ccc(Cl)c(CN2CCC(O)CC2)c1	inactive
COc1ccc([C@H]2C[C@H](O)[C@@H](n3cc(-c4ccc(F)cc4)nn3)CN2Cc2cccs2)cc1	inconclusive: 22.4 µM [inhibitor, single point]
CN(C(=O)CSc1nnc2[nH]c(=O)cc(-c3ccccc3)n12)c1ccccc1	inconclusive: 7.08 µM [inhibitor, full curve, poor fit]
Cc1cc(/C=C(\C#N)C(=O)O)c(C)n1C1CC1	inconclusive: 6.31 µM [inhibitor, single point]
O=C1NC[C@H](Cc2ccccc2)N(C[C@H]2CCCN2C[C@H](Cc2ccccc2)N2C[C@H](Cc3ccc(O)cc3)N(CC3CCCCCC3)C(=O)C2=O)C1=O	inconclusive: 35.5 µM [inhibitor, single point]
CCOC(=O)c1cc(-c2ccccc2)n(CC(=O)NCc2ccccc2OC)c1C	inactive
CCOC(=O)c1c(NC(=O)CNC2CCCCC2)sc(C)c1C	inactive
CCN(c1ccccc1)S(=O)(=O)c1ccc(NN)nc1	inactive
CCOc1ccccc1NS(=O)(=O)c1c(-c2ccc(C)cc2)csc1C(=O)OC	inconclusive: 35.5 µM [inhibitor, single point]
COc1ccc(NC(=O)c2cc(SC)ccc2Cl)cc1	inconclusive: 2.24 µM [inhibitor, partial curve, poor fit]
COc1ccc(CNCC(O)(c2ccccc2)c2ccc(Cl)cc2)cc1 (stereo not drawn)	inconclusive: 35.5 µM [inhibitor, single point]
O=C1OCCN1C(=O)[C@H]1[C@H](c2ccccc2)C(c2ccccc2)=NN1c1ccc(Br)cc1	inconclusive: 15.8 µM [inhibitor, partial curve, poor fit]
COc1ccc(CN(C)C(=O)c2cccc(NS(=O)(=O)c3ccccc3)c2)cc1F	inactive
C=CCNC(=S)NNc1nc2c(c(=O)[nH]1)C1(CCCCC1)Cc1ccccc1-2	inconclusive: 20 µM [inhibitor, single point]
CCN1C(=O)[C@H]2[C@@H](c3ccc(-c4ccc(OC)cc4)cc3)N3CCC[C@@]3(C(=O)OC)[C@H]2C1=O	inconclusive: 7.94 µM [inhibitor, partial curve, poor fit]
Cc1ccc(C(=O)NCC(c2ccco2)N2CCc3ccccc32)cc1C (stereo not drawn)	inconclusive: 15.8 µM [inhibitor, single point]
COc1ccc(Cl)cc1NC(=O)c1ccoc1C	inactive
COc1cccc(CNC(=O)C(C)n2ccc3cc(S(=O)(=O)N4CCCC4)ccc32)c1 (stereo not drawn)	inactive

Structure (SMILES)	Potency
CNc1c([N+](=O)[O-])cnn1-c1ccc(Cl)cc1Cl	inactive
CCOC(=O)c1ccccc1N/C=C/C(=O)c1cccs1	inactive
O=c1c2cc(NC(=S)NC3CC3)ccc2nc2n1CCCCC2	inconclusive: 35.5 µM [inhibitor, single point]
OC(CNCc1ccc(Cl)cc1)(c1ccccc1)c1ccc(F)cc1 (stereo not drawn)	inconclusive: 20 µM [inhibitor, single point]
COc1ccccc1C(=O)NCCC(=O)NCCCSc1ccccc1	inconclusive: 17.8 µM [inhibitor, partial curve, poor fit]
Cc1c(Cl)c([N+](=O)[O-])nn1CCCC(=O)N(Cc1ccccc1)Cc1ccccc1	inconclusive: 11.2 µM [inhibitor, partial curve]
C=CCn1c(Cc2cccs2)nnc1SCC(=O)c1ccc2ccccc2c1	inactive
Cc1ccc(C#CC[N+]2(CC#Cc3ccc(C)cc3)CCCCC2)cc1	active: 20 µM
COc1ccc2oc3cc(NCCN(C)C)ccc3c(=O)c2c1	inconclusive: 35.5 µM [inhibitor, single point]
N/C(Cc1ccc([N+](=O)[O-])cc1)=N\OC(=O)COc1ccccc1Cl	inconclusive: 6.31 µM [inhibitor, single point]
Cc1c2cnn(-c3ccccc3)c(=O)c2c(C)n1CCCC(=O)Nc1ccc(F)cc1F	inconclusive: 5.62 µM [inhibitor, partial curve, poor fit]
CCOC(=O)c1cc(-c2ccccc2)n(CCCC(=O)Nc2ccc(CC)cc2)c1C	inconclusive: 22.4 µM [inhibitor, partial curve, poor fit]
CCCc1nnc(NC(=O)c2nc(S(=O)(=O)Cc3ccc(C)cc3)ncc2Cl)s1	inconclusive: 35.5 µM [inhibitor, single point]
CC(C)C[C@H](NC(=O)c1[nH]cnc1C(=O)N[C@@H](C)c1ccccc1)C(=O)OC(C)(C)C	inconclusive: 22.4 µM [inhibitor, single point]
Cc1cc(C)c2cc3c(N)c(C(=O)N4CCOCC4)sc3nc2c1	inconclusive: 3.55 µM [inhibitor, single point]
CC1CN(Cc2ccccc2)C(=O)N(c2ccccc2)C1=O (stereo not drawn)	inactive
C/C(CCC1CC(C)OC1=O)=N\NC(N)=S (stereo not drawn)	inconclusive: 15.8 µM [inhibitor, single point]
Cc1cc(OCC(=O)Nc2sc3c(c2C(N)=O)CCCC3)ccc1C(C)C	inactive
CN(C)c1ccc(/C=C/c2ccnc3ccccc23)cc1Cl	inactive
COc1ccc([C@]2(C(C)C)ON(c3ccccc3C(F)(F)F)C2=O)cc1	inconclusive: 25.1 µM [inhibitor, single point]
COc1ccc(NC(=O)Cn2c(C)c3cnn(-c4ccccc4)c(=O)c3c2C)c(OC)c1	inconclusive: 0.1 µM [inhibitor, full curve, poor fit]
CC(C)OCCCn1c(SCC(=O)N2CCCC2=O)nc2ccccc2c1=O	inconclusive: 6.31 µM [inhibitor, single point]
Cc1ccc(N(CC(=O)NC(C)c2ccccc2)S(=O)(=O)c2c(C)noc2C)cc1 (stereo not drawn)	inconclusive: 3.16 µM [inhibitor, full curve]

Structure (SMILES)	Potency
Cc1cccc(-c2noc(C3CC(=O)N(c4ccc5c(c4)OCCO5)C3)n2)c1 (stereo not drawn)	inconclusive: 1.41 µM [inhibitor, full curve, poor fit]
Cc1ccc2occ(CC(=O)Nc3ccc(S(N)(=O)=O)cc3)c2c1	inactive
Cn1cccc1-c1nc2ccccc2n1C	inconclusive: 25.1 µM [inhibitor, single point]
CCOc1ccccc1C1c2[nH]c3ccccc3c2C[C@H]2C(=O)N(C3CCN(Cc4ccccc4)CC3)CC(=O)N12 (stereo partly drawn)	inconclusive: 22.4 µM [inhibitor, single point]
CCC(C)c1ccccc1OCCn1c(CCNC(=O)C2CCCCC2)nc2ccccc21 (stereo not drawn)	inactive
COc1ccc([N+](=O)[O-])cc1NCc1ccccc1	inactive
O=C(Cn1nc(-c2ccccc2F)ccc1=O)Nc1ccc(S(=O)(=O)N2CCCCCC2)cc1	inconclusive: 22.4 µM [inhibitor, single point]
CC(C)C(=O)Nc1nnc(CCN2CCCCC2)s1	inconclusive: 28.2 µM [inhibitor, single point]
Cc1ccc(NNC(=S)Nc2ccc(C(C)C)cc2)c(C)c1	inconclusive: 22.4 µM [inhibitor, single point]
Nc1nc(=S)c2ncn(C3OC(CO)C(O)C3O)c2[nH]1 (stereo not drawn)	inconclusive: 4.47 µM [inhibitor, full curve, poor fit]
O=C(Nc1ccc(Cl)cc1)N(C1=NCCC1)c1ccc(OC(F)F)cc1	inconclusive: 35.5 µM [inhibitor, single point]
Cc1cc(C)n2cc(CSc3nc4ccccc4[nH]3)nc2n1	inactive
CC1CN(C(C)C)C(=S)N(c2ccccc2)C1=O (stereo not drawn)	inactive
O=C(Nc1ccccc1)Nc1nnc(COc2ccccc2F)s1	inconclusive: 35.5 µM [inhibitor, single point]
CCC(=O)N1CCc2cc(Br)cc(S(=O)(=O)CCC(=O)Nc3ccccc3C)c21	inactive
Fc1c(F)c(F)c(CSc2nc3ccccc3[nH]2)c(F)c1F	inactive
COCCN(Cc1cc2cc3c(cc2nc1Cl)OCO3)C(=O)c1ccc(C)cc1	inconclusive: 2.82 µM [inhibitor, full curve]
NNc1nnc2c3cc(F)ccc3n(CCc3ccccc3)c2n1	inactive
OC(COc1cccc2ccccc12)CN1CCN(c2ccc(Cl)cc2)CC1 (stereo not drawn)	active: 15.8 µM
CC(C)(C)C1CCc2nc(NC(=O)Cc3ccc(Cl)cc3)sc2C1 (stereo not drawn)	inconclusive: 35.5 µM [inhibitor, single point]
CCC(Sc1nncn2c1cc1sccc12)C(=O)Nc1cccc(OC)c1 (stereo not drawn)	inconclusive: 35.5 µM [inhibitor, partial curve, poor fit]
O=C1CCC[C@@H]2[C@@H](Cc3ccccc3)[C@@H](Nc3ccccc3)C[C@@H]3CCN1[C@@H]32	inconclusive: 25.1 µM [inhibitor, single point]
